In patent publication US20140249076A1, “AMYLIN-CALCITONIN CHIMERIC PEPTIDES CONJUGATED TO DURATION ENHANCING MOIETIES” (AMYLIN PHARMACEUTICALS, LLC, priority 2011, published 2014):
At least one compound was matched to its structure with a doubt left. Numbered stars: 1 amine (or outer) side, 2 acyl side, 3 side chain; on linkers, the order of the positions; unused ones are H or OH. Bridge positions count the residues as written; N and C are the ends. Side chains are listed from the residue outwards. Peptide text beside a SMILES is read from it. * marks the point of attachment. γGlu = O=C(O)[C@H](CCC(=O)[*:2])N[*:1]; Palmitoyl = CCCCCCCCCCCCCCCC(=O)*

What was measured:
Conditions in all cases: Table 8
Amylin receptor = biological target: T1, Amylin receptor (Rattus norvegicus, UniProt P32214); test: Amylin receptor binding assay (125I-rat amylin, RNA membranes)
T1 construct: from tissue; read as rat nucleus accumbens membranes
T1 sequence (P32214 25-516): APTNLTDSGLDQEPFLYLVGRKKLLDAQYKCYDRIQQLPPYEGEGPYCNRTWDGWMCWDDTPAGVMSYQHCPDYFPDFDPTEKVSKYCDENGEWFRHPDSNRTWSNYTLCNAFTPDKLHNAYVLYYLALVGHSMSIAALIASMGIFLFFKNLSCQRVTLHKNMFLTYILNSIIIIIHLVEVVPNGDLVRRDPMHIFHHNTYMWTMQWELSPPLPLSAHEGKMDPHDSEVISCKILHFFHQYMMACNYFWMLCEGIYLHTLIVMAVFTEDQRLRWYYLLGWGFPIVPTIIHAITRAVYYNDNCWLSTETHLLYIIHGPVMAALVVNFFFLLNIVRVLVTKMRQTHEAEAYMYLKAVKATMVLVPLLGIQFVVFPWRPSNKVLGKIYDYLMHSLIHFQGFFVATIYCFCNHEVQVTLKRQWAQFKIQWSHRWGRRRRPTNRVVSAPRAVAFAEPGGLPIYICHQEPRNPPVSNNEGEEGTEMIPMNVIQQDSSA
T1 sequence (Q9JJ74 27-148 partner): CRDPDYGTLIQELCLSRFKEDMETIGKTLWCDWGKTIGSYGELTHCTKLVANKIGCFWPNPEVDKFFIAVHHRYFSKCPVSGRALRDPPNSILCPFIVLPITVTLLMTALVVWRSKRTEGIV
Description: (§1) Amylin receptor binding assay. RNA membranes can be incubated with approximately 20 μM (final concentration) of ^125I-rat amylin (Bolton-Hunter labeled, PerkinElmer, Waltham, Mass.) and increasing concentrations of test compound for 1 hour at ambient temperature in, for example, 96-well polystyrene plates. […] Dried glass fiber plates can be combined with scintillant and counted on a multi-well Perkin Elmer scintillation counter.
(§2) A variety of receptor binding and functional activity assays were conducted using the peptide conjugates described herein. Receptor binding activity can be expressed, for example in Table 6, as an IC50 value, calculated from the raw data using an iterative curve-fitting program using a 4-parameter logistic equation (PRISM®, GraphPAD Software, La Jolla, Calif.), as known in the art.
as §1, with “For the amylin” for “Amylin”, “assay,” for “assay.”, “were” for “can be”, “in” for “in, for example,”, “counter, as well known in the art.” for “counter.”

Calcitonin receptor = biological target: T2, Calcitonin receptor (Rattus norvegicus, UniProt P32214); test: Calcitonin receptor binding assay (125I-human calcitonin, C1a-HEK cell membranes)
T2 construct: expressed in transfected cells; host or cells: C1a-HEK cells (HEK cells stably expressing the receptor), membranes
T2 sequence (P32214 25-479 isoform P32214-2 limits assumed): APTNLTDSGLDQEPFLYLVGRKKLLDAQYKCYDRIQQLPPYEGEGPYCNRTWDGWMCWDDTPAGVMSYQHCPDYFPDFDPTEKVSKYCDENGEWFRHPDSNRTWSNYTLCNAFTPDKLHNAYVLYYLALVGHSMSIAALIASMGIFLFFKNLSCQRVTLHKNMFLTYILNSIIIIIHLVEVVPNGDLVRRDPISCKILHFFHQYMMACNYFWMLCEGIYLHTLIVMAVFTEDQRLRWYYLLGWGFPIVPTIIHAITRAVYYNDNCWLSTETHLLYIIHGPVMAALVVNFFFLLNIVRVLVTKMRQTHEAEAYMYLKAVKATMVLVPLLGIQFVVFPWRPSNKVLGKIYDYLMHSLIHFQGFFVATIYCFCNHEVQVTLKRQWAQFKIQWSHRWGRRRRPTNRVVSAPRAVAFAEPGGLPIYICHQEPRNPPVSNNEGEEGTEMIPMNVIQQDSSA
Description: as §1, with “Calcitonin” for “Amylin”, “C1a-HEK cell” for “RNA”, “[…]” for “20”, “^125I-human calcitonin (PerkinElmer,” for “^125I-rat amylin (Bolton-Hunter labeled, PerkinElmer,”, “multiwell” for “multi-well”
as §2
For the calcitonin receptor binding assay, C1a-HEK cell membranes were incubated with approximately […] (final concentration) of ^125I-human calcitonin (PerkinElmer, Waltham, Mass.) and increasing concentrations of test compound for 1 hour at ambient temperature in 96-well polystyrene plates. […] Dried glass fiber plates were combined with scintillant and counted on a multiwell Perkin Elmer scintillation counter.

CGRP receptor = biological target: T3, CGRP receptor (Homo sapiens, UniProt O60894+Q16602); test: CGRP receptor binding assay (125I-human CGRP, SK-N-MC cell membranes)
T3 construct: SK-N-MC cell membranes were incubated; endogenous in cells; host or cells: SK-N-MC cells, membranes
T3 sequence (Q16602 23-461): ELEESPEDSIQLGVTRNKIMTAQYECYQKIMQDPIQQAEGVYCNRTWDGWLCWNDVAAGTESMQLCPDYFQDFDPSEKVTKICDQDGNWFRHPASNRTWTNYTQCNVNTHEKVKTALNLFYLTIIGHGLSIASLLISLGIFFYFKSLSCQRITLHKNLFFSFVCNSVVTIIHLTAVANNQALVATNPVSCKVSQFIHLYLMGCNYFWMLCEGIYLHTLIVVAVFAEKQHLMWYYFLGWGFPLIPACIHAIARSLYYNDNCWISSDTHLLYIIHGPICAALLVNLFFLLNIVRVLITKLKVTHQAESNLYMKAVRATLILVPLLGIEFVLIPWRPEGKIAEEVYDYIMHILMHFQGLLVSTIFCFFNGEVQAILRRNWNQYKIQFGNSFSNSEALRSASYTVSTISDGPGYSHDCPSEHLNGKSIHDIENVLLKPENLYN
T3 sequence (O60894 27-148): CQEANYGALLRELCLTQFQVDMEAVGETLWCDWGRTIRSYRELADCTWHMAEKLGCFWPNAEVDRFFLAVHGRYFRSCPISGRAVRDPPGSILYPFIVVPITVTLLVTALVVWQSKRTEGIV

| SMILES | IC50 (Amylin receptor) | IC50 (Calcitonin receptor) | IC50 (CGRP receptor) |
| --- | --- | --- | --- |
| CCCCCCCCCCCCCCCC(=O)N[C@@H](CCC(=O)NCCCC[C@H](NC(=O)[C@@H]1CCCN1C(=O)[C@H](Cc1ccc(O)cc1)NC(=O)[C@@H](NC(=O)[C@H](CCC(N)=O)NC(=O)[C@H](CC(C)C)NC(=O)[C@H](CCCNC(=N)N)NC(=O)[C@H](Cc1c[nH]cn1)NC(=O)[C@H](CC(C)C)NC(=O)[C@H](CCC(=O)O)NC(=O)[C@H](CCC(N)=O)NC(=O)[C@H](C)NC(=O)[C@H](CC(C)C)NC(=O)[C@H](CCCNC(=N)N)NC(=O)[C@H](CCC(N)=O)NC(=O)[C@H](CC(C)C)NC(=O)[C@H](C)NC(=O)[C@@H]1CSSC[C@H](NC(=O)[C@@H](N)CCCCN)C(=O)N[C@@H](CC(N)=O)C(=O)N[C@@H]([C@@H](C)O)C(=O)N[C@@H](C)C(=O)N[C@@H]([C@@H](C)O)C(=O)N1)[C@@H](C)O)C(=O)N[C@H](C(=O)N[C@@H](CC(N)=O)C(=O)N[C@H](C(=O)NCC(=O)N[C@@H](CO)C(=O)N[C@@H](CC(N)=O)C(=O)N[C@H](C(=O)N[C@@H](Cc1ccc(O)cc1)C(N)=O)[C@@H](C)O)C(C)C)[C@@H](C)O)C(=O)O [Cmpd 188, [K^24ε-(γ-Glu(Nα-C16-Chain))]-Cmpd 17] (H-KCNTATCALQRLAQELHRLQTYPK([γGlu-Palmitoyl])TNVGSNTY-NH2; disulfide 2-7 (inferred); N-terminus assumed) | 1.61 nM | 0.898 nM | 100 nM |
| CCCCCCCCCCCCCCCC(=O)N[C@@H](CCC(=O)NCCCC[C@H](NC(=O)[C@@H](NC(=O)[C@H](CCCNC(=N)N)NC(=O)[C@@H]1CCCN1C(=O)[C@H](Cc1ccc(O)cc1)NC(=O)[C@@H](NC(=O)[C@H](CCC(N)=O)NC(=O)[C@H](CC(C)C)NC(=O)[C@H](CCCNC(=N)N)NC(=O)[C@H](Cc1c[nH]cn1)NC(=O)[C@H](CC(C)C)NC(=O)[C@H](CCC(=O)O)NC(=O)[C@H](CCC(N)=O)NC(=O)[C@H](C)NC(=O)[C@H](CC(C)C)NC(=O)[C@H](CCCNC(=N)N)NC(=O)[C@H](CCC(N)=O)NC(=O)[C@H](CC(C)C)NC(=O)[C@H](C)NC(=O)[C@@H]1CSSC[C@H](NC(=O)[C@@H](N)CCCCN)C(=O)N[C@@H](CC(N)=O)C(=O)N[C@@H]([C@@H](C)O)C(=O)N[C@@H](C)C(=O)N[C@@H]([C@@H](C)O)C(=O)N1)[C@@H](C)O)[C@@H](C)O)C(=O)N[C@H](C(=O)NCC(=O)N[C@@H](CO)C(=O)N[C@@H](CC(N)=O)C(=O)N[C@H](C(=O)N[C@@H](Cc1ccc(O)cc1)C(N)=O)[C@@H](C)O)C(C)C)C(=O)O [Cmpd 189, [K^26ε-(γ-Glu(Nα-C16-Chain))]-Cmpd 17] (H-KCNTATCALQRLAQELHRLQTYPRTK([γGlu-Palmitoyl])VGSNTY-NH2; disulfide 2-7 (inferred); N-terminus assumed) | 4.01 nM | 1.49 nM | 75 nM |
| CCCCCCCCCCCCCCCC(=O)N[C@@H](CCC(=O)NCCCC[C@H](N)C(=O)N[C@H]1CSSC[C@@H](C(=O)N[C@@H](C)C(=O)N[C@@H](CC(C)C)C(=O)N[C@@H](CCC(N)=O)C(=O)N[C@@H](CCCNC(=N)N)C(=O)N[C@@H](CC(C)C)C(=O)N[C@@H](C)C(=O)N[C@@H](CCC(N)=O)C(=O)N[C@@H](CCC(=O)O)C(=O)N[C@@H](CC(C)C)C(=O)N[C@@H](Cc2c[nH]cn2)C(=O)N[C@@H](CCCNC(=N)N)C(=O)N[C@@H](CC(C)C)C(=O)N[C@@H](CCC(N)=O)C(=O)N[C@H](C(=O)N[C@@H](Cc2ccc(O)cc2)C(=O)N2CCC[C@H]2C(=O)N[C@@H](CCCNC(=N)N)C(=O)N[C@H](C(=O)N[C@@H](CC(N)=O)C(=O)N[C@H](C(=O)NCC(=O)N[C@@H](CO)C(=O)N[C@@H](CC(N)=O)C(=O)N[C@H](C(=O)N[C@@H](Cc2ccc(O)cc2)C(N)=O)[C@@H](C)O)C(C)C)[C@@H](C)O)[C@@H](C)O)NC(=O)[C@H]([C@@H](C)O)NC(=O)[C@H](C)NC(=O)[C@H]([C@@H](C)O)NC(=O)[C@H](CC(N)=O)NC1=O)C(=O)O [Cmpd 192, [K^1ε-(γ-Glu(Nα-C16-Chain))]-Cmpd 17] (H-K([γGlu-Palmitoyl])CNTATCALQRLAQELHRLQTYPRTNVGSNTY-NH2; disulfide 2-7 (inferred); N-terminus assumed) | 0.518 nM | 0.07 nM |  |
| CCCCCCCCCCCCCCCC(=O)N[C@@H](CCC(=O)NCCCC[C@H](NC(=O)[C@H](CCC(N)=O)NC(=O)[C@H](CC(C)C)NC(=O)[C@H](C)NC(=O)[C@@H]1CSSC[C@H](NC(=O)[C@@H](N)CCCCN)C(=O)N[C@@H](CC(N)=O)C(=O)N[C@@H]([C@@H](C)O)C(=O)N[C@@H](C)C(=O)N[C@@H]([C@@H](C)O)C(=O)N1)C(=O)N[C@@H](CC(C)C)C(=O)N[C@@H](C)C(=O)N[C@@H](CCC(N)=O)C(=O)N[C@@H](CCC(=O)O)C(=O)N[C@@H](CC(C)C)C(=O)N[C@@H](Cc1c[nH]cn1)C(=O)N[C@@H](CCCNC(=N)N)C(=O)N[C@@H](CC(C)C)C(=O)N[C@@H](CCC(N)=O)C(=O)N[C@H](C(=O)N[C@@H](Cc1ccc(O)cc1)C(=O)N1CCC[C@H]1C(=O)N[C@@H](CCCNC(=N)N)C(=O)N[C@H](C(=O)N[C@@H](CC(N)=O)C(=O)N[C@H](C(=O)NCC(=O)N[C@@H](CO)C(=O)N[C@@H](CC(N)=O)C(=O)N[C@H](C(=O)N[C@@H](Cc1ccc(O)cc1)C(N)=O)[C@@H](C)O)C(C)C)[C@@H](C)O)[C@@H](C)O)C(=O)O [Cmpd 193, [K^11ε(γ-Glu(Nα-C16-Chain))]-Cmpd 17] (H-KCNTATCALQK([γGlu-Palmitoyl])LAQELHRLQTYPRTNVGSNTY-NH2; disulfide 2-7 (inferred); N-terminus assumed) | 0.73 nM | 0.168 nM | 46.5 nM |
| CCCCCCCCCCCCCCCC(=O)N[C@@H](CCC(=O)NCCCC[C@H](N)C(=O)N[C@@H](CCCCN)C(=O)N[C@H]1CSSC[C@@H](C(=O)N[C@@H](C)C(=O)N[C@@H](CC(C)C)C(=O)N[C@@H](CCC(N)=O)C(=O)N[C@@H](CCCNC(=N)N)C(=O)N[C@@H](CC(C)C)C(=O)N[C@@H](C)C(=O)N[C@@H](CCC(N)=O)C(=O)N[C@@H](CCC(=O)O)C(=O)N[C@@H](CC(C)C)C(=O)N[C@@H](Cc2c[nH]cn2)C(=O)N[C@@H](CCCNC(=N)N)C(=O)N[C@@H](CC(C)C)C(=O)N[C@@H](CCC(N)=O)C(=O)N[C@H](C(=O)N[C@@H](Cc2ccc(O)cc2)C(=O)N2CCC[C@H]2C(=O)N[C@@H](CCCNC(=N)N)C(=O)N[C@H](C(=O)N[C@@H](CC(N)=O)C(=O)N[C@H](C(=O)NCC(=O)N[C@@H](CO)C(=O)N[C@@H](CC(N)=O)C(=O)N[C@H](C(=O)N[C@@H](Cc2ccc(O)cc2)C(N)=O)[C@@H](C)O)C(C)C)[C@@H](C)O)[C@@H](C)O)NC(=O)[C@H]([C@@H](C)O)NC(=O)[C@H](C)NC(=O)[C@H]([C@@H](C)O)NC(=O)[C@H](CC(N)=O)NC1=O)C(=O)O [Cmpd 195, Kε-(γ-Glu(Nα-C16-Chain))-Cmpd 17] (H-K([γGlu-Palmitoyl])KCNTATCALQRLAQELHRLQTYPRTNVGSNTY-NH2; disulfide 3-8; N-terminus assumed) | 0.137 nM | 0.046 nM |  |
